Reference: the supplement of paper PMC11417369
The list shows a part of the results.

Each sequence was assayed on PfSIP2 AP2 domain 1 (GST-tagged) (assay: gcPBM binding intensity (ln(normalized median fluorescence intensity)); higher = stronger DNA binding).
Outline: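 The highest Masliner-normalised natural-log median intensity across replicate spots of either probe orientation is reported as binding intensity. GST-tagged P. falciparum DNA-binding domains expressed in E. coli were applied for 1 h to an Agilent 4 × 180k array of primer-extended double-stranded 36-bp intergenic genomic probes plus negative controls, and bound protein was detected with Alexa488 anti-GST antibody and scanned at 488 nm.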

Sequence | gcPBM binding intensity (ln)
GCTAATAATAAAAGCATAATGAACAAACACCCAGTA [CACACA_negctrl_site806] | 7.29
TTATATAACACGGGGAGGACACAAGAAATAAAGAGC [XGTACX_site2148] | 7.65
TTTTTCTGTTTTTATAGCCTTCTCATAATACATAAA [TGCATGCA_negctrl_site355] | 7.14
TATACGCAGAAACACACACACAAAAAAAAAAAAAAA [CACACA_site427] | 7.12
TATAATAAATCGAACTGTACATATATATATATATAT [XGTACX_site7097] | 9.65
ATTCGGATCTATAAGTGTACACAATCTAGCGAAAAG [XGTACX_site3088] | 6.9
TTTATTCAAATATAATGTACTTTCTACAAATTCAAT [XGTACX_site8119] | 6.81
CATATATAAATATATACACACATATATATATATATA [CACACA_site1365] | 9.43
ATTTTTTTTGCTAAGTGTACACAAATGTTTATTAAT [XGTACX_site7440] | 7.49
CAGATAAGATTTTGTGGTACTATTTATTAAATTAGA [XGTACX_site2644] | 6.68
ATATTTTCCCTTTATAGGAGCACAAAAATTAAATGT [CACACA_negctrl_site1114] | 7.09
TTTTGGTTAATTCCCCCCATTACATTATGTCATGTC [CACACA_negctrl_site229] | 8.48
TTTCATTTTTTTACATGTACGCAAAAGTGTGTAGTT [XGTACX_site6582] | 7.04
TAATACTTATATAAAGGTACACAATTTAACCGAATG [XGTACX_site7173] | 7.06
GTAAATATTCATATATGTACTTATGATATTTGCTAA [XGTACX_site6828] | 6.8
ACATATATATATATATATTGATTTATTTATTTCCCT [CACACA_negctrl_site659] | 7.44
ATATATATATATAAATGTACAAAAATATATATGTAA [XGTACX_site4531] | 9.37
AAGAAAGAGTTCTGTTGTACAAAATATTAATATGTA [XGTACX_site7213] | 7.1
CTTCCTTAGGAATGTACACACATATAAAATATGTTG [CACACA_site6355] | 7.07

Sequence | gcPBM binding intensity (ln)
TTTATTAAGAAACACACACACACACCCAAAATAAAA [CACACA_site242] | 7.15
CTTTATTATAAGATTACACACATGTGTTCTAATTTA [CACACA_site7479] | 6.98
TAATTAACTTTATATGCATGTTAAAAATGTTATAAG [TGCATGCA_site761] | 6.97
TATAAACAAAACAAAACATGCATAATACTATAAATT [TGCATGCA_site333] | 6.86
AACAAAATAAAAAGTAATCTTATTTATTAAAATTTT [CACACA_negctrl_site419] | 6.64
AAAGAAAGAAAACACACACACATATATATATATCAA [CACACA_site3743] | 7.06
TTTTTGTCTGCATACGCACACACGTGGACCATCTTA [CACACA_site8303] | 7.05
TATATATATATATGTACACACACACCGATAAATAAA [CACACA_site8041] | 9.63
CTATTTAAAATATGAACACACATTATTTGTTTTAGA [CACACA_site2713] | 6.79
ATATCATTATATAGTTGTACATATTTATTTATTTAT [XGTACX_site8995] | 7.06
AAAAAAAAAAATACTAGTACGTAAAATTATATAAAT [XGTACX_site3019] | 6.97
AATATAGGAATATGCACACATATATACCTACATACA [CACACA_site4939] | 7.21
ATTTCCCATACACGTTGTACAATGTAGAGAAAGTAT [XGTACX_site4586] | 6.98
GATATGTGTATAATATGTACATATATATATATATAT [XGTACX_site6531] | 9.33
TTTTACGTGAGTAATACACACATATAAGTTTATATA [CACACA_site4120] | 6.74
GGCATACACGAACACACACACACACGCACATATATA [CACACA_site6426] | 7.7
TATAACTTTTTTAATACACACAAATATTTATTTATA [CACACA_site7425] | 7.04
TACCACTTTCGAAGTAGTACATGGCTTTTTTTTTTT [XGTACX_site8379] | 6.8
TGTATGTTAAATACAACACACAAAAAAAAACAAGTT [CACACA_site4324] | 6.85

Sequence | gcPBM binding intensity (ln)
TATACAGATAAATACACACACATATATATATATATA [CACACA_site4178] | 9.72
ATATATATATGTGTGTGTACATATGATTTCGCACTT [XGTACX_site4449] | 8.85
GTTATAATTTAGTCAAGTACATGCGTATGTATATTC [XGTACX_site3763] | 6.92
CACAGAAATATTCTTATACACACTGTTCTTATATTC [CACACA_site288] | 6.82
TAATATATATTATATACACACATATATATATATATA [CACACA_site428] | 9.6
TGAAATAACCCATGTGCATGCACTTCAATAACTGAA [TGCATGCA_site1041] | 8.63
TATAAATTAAAATCAGTGCATATTTTGAAAAACCTC | 8.89
ATATTATTATTAGTTTCACACATTTAATGAAACTAA [CACACA_site5677] | 7.05
TATAAATTATAAATTGCACACATATTTTTATATTTA [CACACA_site8974] | 7.03
TATATATATATATATTGTACATATTAATATTAGAAA [XGTACX_site8923] | 9.19
ATTACCATATAAAACACACAAACATACATACATACA [CACACA_site3729] | 8
TGGAGGTCAGTTCACAGTACCCAGAAACTCTACGAG [XGTACX_site2007] | 6.61
TTACATGTAAAAGGTACACACATTAGATATACAAAT [CACACA_site6651] | 6.94
AATACTCAAAAGAATCGTACAAACAACACTCCCACG [XGTACX_site7564] | 7.14
TATCATACCTTTTAATGTACACACATTTCTTTTTTG [XGTACX_site1655] | 7.39
TAATATATAAAAAGATGTACTTTTGCAAGTTCCTTT [XGTACX_site8519] | 6.72
GGACTTTATAAAAATGGTACACGCAATTCTATAATC [XGTACX_site6515] | 6.89
GGTACATACAAACACACACACAAAAAAAAAAAAATA [CACACA_site1577] | 7.2
ATATATATATATGTATGTACGTATGTATGTATGAAT [XGTACX_site4857] | 9.19
